# The supplement of paper PMC8728848
# Some of the results follow.
# B1: LBL-152 (Laetiporus bicolor), B0D650 (protein)
# chain: MSNEYNPPLGIAFRLCGLASDRVLFSRVSPSPEVFHHPKSEVYPDQWFVAIPGSGQNAGCYAIKSKNTGKVLFSRMSPDPRVGHIDGDGKYPDNWFKFEAGSGKYAGYFRLRAVASDTVLVSRTSTGTDTQVINYPATSAKYDDQYFTILFDHHHHHH
# Tests used:
# Experiment in all cases: glycan array binding signal (z-score within array); higher = stronger binding
# Conditions in all cases: glycan notation: IUPAC condensed, linker removed
# [1] = molecular target: Fuc(a1-2)[GalNAc(b1-3)]Gal
# In short: (§1)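 The binding signal is a Z-score computed within each array. Data were drawn from 3228 arrays in the Consortium for Functional Glycomics database, restricted to those with a known protein sequence. Scores were averaged over arrays of the same protein sequence at different concentrations or buffers, and over linkers, and negative values can be taken as non-binding.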
# Fuc(a1-3)GlcNAc = molecular target: Fuc(a1-3)GlcNAc
# In short: as §1
# [2] = molecular target: Fuc(a1-3)[Gal(b1-4)]Glc6S
# In short: as §1
# [3] = molecular target: Fuc(a1-3)[Gal(b1-4)]GlcNAc
# In short: as §1
# [4] = molecular target: Fuc(a1-3)[Gal(b1-4)]GlcNAc(b1-2)Man
# In short: as §1
# [5] = molecular target: Fuc(a1-3)[Gal(b1-4)]GlcNAc(b1-2)Man(a1-3)[Fuc(a1-3)[Gal(b1-4)]GlcNAc(b1-2)Man(a1-6)]Man(b1-4)GlcNAc(b1-4)GlcNAc
# In short: as §1
# [6] = molecular target: Fuc(a1-3)[Gal(b1-4)]GlcNAc(b1-2)Man(a1-3)[Fuc(a1-3)[Gal(b1-4)]GlcNAc(b1-2)Man(a1-6)]Man(b1-4)GlcNAc(b1-4)[Fuc(a1-6)]GlcNAc
# In short: as §1
# [7] = molecular target: Fuc(a1-3)[Gal(b1-4)]GlcNAc(b1-3)Gal(b1-3)[Fuc(a1-4)]GlcNAc
# In short: as §1
# [8] = molecular target: Fuc(a1-3)[Gal(b1-4)]GlcNAc(b1-3)Gal(b1-4)[Fuc(a1-3)]GlcNAc
# In short: as §1
# [9] = molecular target: Fuc(a1-3)[Gal(b1-4)]GlcNAc(b1-3)Gal(b1-4)[Fuc(a1-3)]GlcNAc(b1-3)Gal(b1-4)[Fuc(a1-3)]GlcNAc
# In short: as §1
# [10] = molecular target: Fuc(a1-3)[Gal(b1-4)]GlcNAc(b1-3)GalNAc
# In short: as §1
# [11] = molecular target: Fuc(a1-3)[Gal(b1-4)]GlcNAc(b1-6)GalNAc
# In short: as §1
# [12] = molecular target: Fuc(a1-3)[Gal(b1-4)]GlcNAc(b1-6)[Gal(b1-3)GlcNAc(b1-3)]Gal(b1-4)Glc
# In short: as §1
# [13] = molecular target: Fuc(a1-3)[Gal(b1-4)]GlcNAc6S
# In short: as §1
# [14] = molecular target: Fuc(a1-3)[Gal3S(b1-4)]Glc
# In short: as §1
# [15] = molecular target: Fuc(a1-3)[Gal3S(b1-4)]GlcNAc
# In short: as §1
# [16] = molecular target: Fuc(a1-3)[Gal3S(b1-4)]GlcNAc6S
# In short: as §1
# [17] = molecular target: Fuc(a1-3)[GalNAc(b1-4)]GlcNAc
# In short: as §1
# [18] = molecular target: Fuc(a1-3)[GalNAc(b1-4)]GlcNAc6S
# In short: as §1
# Fuc(a1-4)GlcNAc = molecular target: Fuc(a1-4)GlcNAc
# In short: as §1
# Fuc(b1-3)GlcNAc = molecular target: Fuc(b1-3)GlcNAc
# In short: as §1
# Gal(a1-2)Gal = molecular target: Gal(a1-2)Gal
# In short: as §1
# Gal(a1-3)Gal = molecular target: Gal(a1-3)Gal
# In short: as §1
# Gal(a1-3)Gal(b1-3)GlcNAc = molecular target: Gal(a1-3)Gal(b1-3)GlcNAc
# In short: as §1
# [19] = molecular target: Gal(a1-3)Gal(b1-3)GlcNAc(b1-2)Man
# In short: as §1
# [20] = molecular target: Gal(a1-3)Gal(b1-3)GlcNAc(b1-2)Man(a1-3)[Gal(a1-3)Gal(b1-3)GlcNAc(b1-2)Man(a1-6)]Man(b1-4)GlcNAc(b1-4)GlcNAc
# In short: as §1
# [21] = molecular target: Gal(a1-3)Gal(b1-3)GlcNAc(b1-3)GalNAc
# In short: as §1
# [22] = molecular target: Gal(a1-3)Gal(b1-3)GlcNAc(b1-6)GalNAc
# In short: as §1
# [23] = molecular target: Gal(a1-3)Gal(b1-3)[Fuc(a1-4)]GlcNAc(b1-2)Man(a1-3)[Gal(a1-3)Gal(b1-3)[Fuc(a1-4)]GlcNAc(b1-2)Man(a1-6)]Man(b1-4)GlcNAc(b1-4)GlcNAc
# In short: as §1
# Gal(a1-3)Gal(b1-4)Glc = molecular target: Gal(a1-3)Gal(b1-4)Glc
# In short: as §1
# Gal(a1-3)Gal(b1-4)GlcNAc = molecular target: Gal(a1-3)Gal(b1-4)GlcNAc
# In short: as §1
# [24] = molecular target: Gal(a1-3)Gal(b1-4)GlcNAc(b1-2)Man
# In short: as §1
# [25] = molecular target: Gal(a1-3)Gal(b1-4)GlcNAc(b1-2)Man(a1-3)[Gal(a1-3)Gal(b1-4)GlcNAc(b1-2)Man(a1-6)]Man(b1-4)GlcNAc(b1-4)GlcNAc
# In short: as §1
# [26] = molecular target: Gal(a1-3)Gal(b1-4)GlcNAc(b1-3)GalNAc
# In short: as §1
# [27] = molecular target: Gal(a1-3)Gal(b1-4)GlcNAc(b1-6)GalNAc
# In short: as §1
# [28] = molecular target: Gal(a1-3)Gal(b1-4)[Fuc(a1-3)]GlcNAc
# In short: as §1
# [29] = molecular target: Gal(a1-3)Gal(b1-4)[Fuc(a1-3)]GlcNAc(b1-2)Man(a1-3)[Gal(a1-3)Gal(b1-4)[Fuc(a1-3)]GlcNAc(b1-2)Man(a1-6)]Man(b1-4)GlcNAc(b1-4)GlcNAc
# In short: as §1
# Gal(a1-3)GalNAc = molecular target: Gal(a1-3)GalNAc
# In short: as §1
# [30] = molecular target: Gal(a1-3)[Gal(a1-4)]Gal(b1-4)GlcNAc
# In short: as §1
# [31] = molecular target: Gal(a1-4)Gal(b1-3)GlcNAc(b1-2)Man(a1-3)[Gal(a1-4)Gal(b1-3)GlcNAc(b1-2)Man(a1-6)]Man(b1-4)GlcNAc(b1-4)GlcNAc
# In short: as §1
# Gal(a1-4)Gal(b1-4)Glc = molecular target: Gal(a1-4)Gal(b1-4)Glc
# In short: as §1
# Gal(a1-4)Gal(b1-4)GlcNAc = molecular target: Gal(a1-4)Gal(b1-4)GlcNAc
# In short: as §1
# [32] = molecular target: Gal(a1-4)Gal(b1-4)GlcNAc(b1-2)Man(a1-3)[Gal(a1-4)Gal(b1-4)GlcNAc(b1-2)Man(a1-6)]Man(b1-4)GlcNAc(b1-4)GlcNAc
# In short: as §1
# [33] = molecular target: Gal(a1-4)Gal(b1-4)GlcNAc(b1-3)Gal(b1-4)Glc
# In short: as §1
# Gal(a1-4)GlcNAc = molecular target: Gal(a1-4)GlcNAc
# In short: as §1
binder,measurement,setting,value
B1,glycan array binding signal (z-score),[1],-0.157
same,glycan array binding signal (z-score),Fuc(a1-3)GlcNAc,-0.155
same,glycan array binding signal (z-score),[2],-0.156
same,glycan array binding signal (z-score),[3],-0.157
same,glycan array binding signal (z-score),[4],-0.155
same,glycan array binding signal (z-score),[5],-0.154
same,glycan array binding signal (z-score),[6],-0.145
same,glycan array binding signal (z-score),[7],-0.157
same,glycan array binding signal (z-score),[8],-0.151
same,glycan array binding signal (z-score),[9],-0.149
same,glycan array binding signal (z-score),[10],-0.156
same,glycan array binding signal (z-score),[11],-0.155
same,glycan array binding signal (z-score),[12],-0.151
same,glycan array binding signal (z-score),[13],-0.146
same,glycan array binding signal (z-score),[14],-0.154
same,glycan array binding signal (z-score),[15],-0.15
same,glycan array binding signal (z-score),[16],-0.157
same,glycan array binding signal (z-score),[17],-0.141
same,glycan array binding signal (z-score),[18],-0.156
same,glycan array binding signal (z-score),Fuc(a1-4)GlcNAc,-0.151
same,glycan array binding signal (z-score),Fuc(b1-3)GlcNAc,-0.156
same,glycan array binding signal (z-score),Gal(a1-2)Gal,-0.155
same,glycan array binding signal (z-score),Gal(a1-3)Gal,-0.153
same,glycan array binding signal (z-score),Gal(a1-3)Gal(b1-3)GlcNAc,-0.157
same,glycan array binding signal (z-score),[19],-0.155
same,glycan array binding signal (z-score),[20],-0.153
same,glycan array binding signal (z-score),[21],-0.158
same,glycan array binding signal (z-score),[22],-0.163
same,glycan array binding signal (z-score),[23],-0.152
same,glycan array binding signal (z-score),Gal(a1-3)Gal(b1-4)Glc,-0.155
same,glycan array binding signal (z-score),Gal(a1-3)Gal(b1-4)GlcNAc,-0.156
same,glycan array binding signal (z-score),[24],-0.152
same,glycan array binding signal (z-score),[25],0.013
same,glycan array binding signal (z-score),[26],-0.152
same,glycan array binding signal (z-score),[27],-0.162
same,glycan array binding signal (z-score),[28],-0.155
same,glycan array binding signal (z-score),[29],-0.139
same,glycan array binding signal (z-score),Gal(a1-3)GalNAc,-0.15
same,glycan array binding signal (z-score),[30],-0.137
same,glycan array binding signal (z-score),[31],-0.153
same,glycan array binding signal (z-score),Gal(a1-4)Gal(b1-4)Glc,-0.14
same,glycan array binding signal (z-score),Gal(a1-4)Gal(b1-4)GlcNAc,-0.145
same,glycan array binding signal (z-score),[32],-0.132
same,glycan array binding signal (z-score),[33],-0.165
same,glycan array binding signal (z-score),Gal(a1-4)GlcNAc,-0.153
